Screen size: about 94,000 compounds; about 6,200 (6.6%) were called active. The inconclusive results got no clear call from the source; some entries with a clear call stand among them for comparison. Calls come from the whole dose curve; as a rule, active = well fitted inhibition curve with a large enough effect; inconclusive = small, poorly fitted or top-dose-only effect; inactive = flat fitted curve, though single readings scatter. A potency beside an inconclusive call is a rough fit, not a confirmed value.
assay: Cytotoxic Profiling in HEK 293 Cell Line of Diverse Libraries Using Quantitative High-Throughput Screening; details: HEK 293 viability, ATP luminescence (CellTiter-Glo), 48-72 h; activity change, negative = cytotoxicity: at 115 µM (top of the series) unless noted; series mostly up to 115 µM; note: nearly all actives have a fitted effect of over 60% in size
In short: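 HEK 293 cells seeded at 250 cells/well were exposed to compound for 48 or 72 hr at 37 degree Celsius. Viability taken as ATP content by CellTiter-Glo luminescence.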
% is set by controls: 0 for no effect and ±100 for the full control effect; potency is the fitted concentration of half-maximal effect; tags give direction and shape of the fitted curve.

Compound | activity change, negative = cytotoxicity | Potency | outcome
O=C(Cn1nc2n(c1=O)CCCCC2)Nc1cccc(Cl)c1 | inactive: 6.12% | – | –
Cc1ccc2nc(C(=O)N(C)Cc3cc(-c4cccnc4)no3)cn2c1 | – | inconclusive: 79.4 µM [inhibitor, partial curve, poor fit] | –
Cc1nn(-c2ccccc2)c2c1C(C(C)C)N(C1CN(C(=O)N(C)C)C1)C2=O (stereo not drawn) | – | inconclusive: 50.1 µM [inhibitor, partial curve, poor fit] | –
O=C(C1CCCN(c2nc(-c3ccccc3)nc3c2CCC3)C1)N1CCCNCC1 (stereo not drawn) | – | inconclusive: 56.2 µM [inhibitor, partial curve, poor fit] | –
Cn1cc(CN2CCOC[C@H]2c2ncc(-c3cccc(F)c3)[nH]2)c2ccccc21 | – | active: 35.5 µM | –
Cc1ccccc1C(=O)NCCNC(=O)c1ccc(-c2cccc(C(F)(F)F)c2)cc1 | – | inconclusive: 44.7 µM [inhibitor, partial curve] | –
CC(=O)c1cc(CN2CCC(c3nnc4n3CCCCC4)CC2)n(C)c1 | – | – | inactive
CN1C(=O)[C@H]2CN(Cc3ccc(Cl)c(F)c3)C[C@H]2C1=O | inactive: -23.2% | – | –
O=C(Nc1ccc(Cl)cc1)N1CCC2(CC1)CCN(Cc1cccs1)c1ccccc1O2 | – | inconclusive: 31.6 µM [inhibitor, full curve] | –
Cc1ccc(C)c(-c2cc3c(=O)n(CCNC(=O)c4ccccc4Cl)ccn3n2)c1 | – | active: 44.7 µM | –
COC(=O)N[C@H]1[C@H](OC(=O)c2ccccc2)[C@@H]2O[C@H]1c1ccccc12 | – | inconclusive: 39.8 µM [inhibitor, single point] | –
CCc1ccc(C(=O)N2CCN(C(=O)c3nnn4c3COC(c3ccc(Cl)cc3)C4)CC2)cc1 (stereo not drawn) | – | inconclusive: 100 µM [inhibitor, single point] | –
COc1ccc(-c2ccc(C(=O)N3CCN([S+](=O)([O-])c4ccccc4)CC3)cc2)nn1 | – | inconclusive: 89.1 µM [inhibitor, single point] | –
Cc1cccc(CN2CCCN(Cc3ccncc3)C(c3ccccc3)CC(=O)NCC2)c1 (stereo not drawn) | – | inconclusive: 56.2 µM [inhibitor, partial curve, poor fit] | –
CCOC(=O)C1CCCN(C(=O)c2ccc3oc(-c4ccnc(Cl)c4)nc3c2)C1 (stereo not drawn) | – | inconclusive: 56.2 µM [inhibitor, partial curve, poor fit] | –
Cn1nc(C2CC2)cc1NC(=O)C1CCCC1 | – | – | inactive [at 172 µM]
CCN1c2cc(C(=O)NCc3ccccc3C)ccc2C(=O)N2CCCCC21 (stereo not drawn) | – | inconclusive: 50.1 µM [inhibitor, single point] | –
COc1ccc(CNC[C@H]2COCc3nc4cc(F)ccc4n32)cn1 | – | inconclusive: 31.6 µM [inhibitor, partial curve, poor fit] | –
COc1ccccc1-c1cc(-c2cccs2)nc2c(C)noc12 | – | inconclusive: 70.8 µM [inhibitor, partial curve, poor fit] | –
CC(C)CC(=O)N1CCC2(CC1)CN(Cc1ccccc1)CC2CO (stereo not drawn) | – | inconclusive: 56.2 µM [inhibitor, partial curve, poor fit] | –
Cc1ccccc1C(=O)N1CCCC1C(=O)N1CCC(c2ccccc2)CC1 (stereo not drawn) | inactive: -19.7% | – | –

Compound | activity change, negative = cytotoxicity | Potency | outcome
O=c1c2nc(-c3ccccc3)ccc2ncn1-c1ccc(F)cc1F | – | inconclusive: 79.4 µM [inhibitor, partial curve, poor fit] | –
O=C1N(Cc2ccccn2)C[C@H]2CN(Cc3ccc(C(F)(F)F)cc3)CCN12 | – | inconclusive: 79.4 µM [inhibitor, partial curve] | –
Cn1nccc1C(O)c1cc2n(n1)CCN(S(=O)(=O)c1ccccc1)C2 (stereo not drawn) | inactive: -14.2% | – | –
CC(C)C(=O)NC1CCCN(c2ccc3nnc(-c4ccccc4)n3n2)C1 (stereo not drawn) | inactive: -22.8% | – | –
CN(C)c1cccc(C(=O)NCC2CCN(c3cc(-c4ccccc4)[nH]n3)CC2)c1 | – | inconclusive: 63.1 µM [inhibitor, partial curve, poor fit] | –
Cc1ccc(F)cc1S(=O)(=O)N1CC(c2nc(-c3ccncc3)no2)C1 | – | inconclusive: 50.1 µM [inhibitor, partial curve, poor fit] | –
O=C(NC[C@H]1Cn2c(-c3ccc4c(c3)OCO4)cnc2CO1)Nc1ccccc1 | – | inconclusive: 100 µM [inhibitor, partial curve, poor fit] | –
O=C1COc2ccc(OCC3CC3)nc2CN1Cc1ccccc1 | – | inconclusive: 112 µM [inhibitor, single point] | –
COc1ccc(-c2cc(N3CCN(C(=O)c4ccc(C#N)cc4)CC3)n[nH]2)cc1 | – | inconclusive: 35.5 µM [inhibitor, partial curve, poor fit] | –
CC1Oc2ccc(NC(=O)C3CCCC3)cc2CN(Cc2ccc(F)cc2)C1=O (stereo not drawn) | – | inconclusive: 56.2 µM [inhibitor, partial curve, poor fit] | –
Cc1cc(=O)n(CC(=O)Nc2ccccc2C)c(N2CCc3ccccc3C2)n1 | – | inconclusive: 44.7 µM [inhibitor, partial curve, poor fit] | –
O=C1NC2(CCN([S+](=O)([O-])c3ccccc3)C2)Oc2ccccc21 (stereo not drawn) | – | inconclusive: 79.4 µM [inhibitor, partial curve] | –
CC(C)c1nc2cc(C(=O)N3CCCC(c4ccccc4)C3)ccc2o1 (stereo not drawn) | – | inconclusive: 22.4 µM [inhibitor, full curve, poor fit] | –
COCC(=O)NC1CCCN(c2ccc3nnc(-c4ccccc4)n3n2)C1 (stereo not drawn) | – | inconclusive: 56.2 µM [inhibitor, partial curve, poor fit] | –
COc1cc(C(=O)N2CCC(n3c(=O)[nH]c4ccccc43)CC2)nc2ccccc12 | – | inconclusive: 89.1 µM [inhibitor, single point] | –
Cc1nn(-c2ccccc2)c2c1C(C(C)C)N(C1CCCN([S+](=O)([O-])c3ccccc3)C1)C2=O (stereo not drawn) | – | inconclusive: 79.4 µM [inhibitor, partial curve] | –
O=C1[C@@H]2C[C@@H](CN2Cc2ccccc2)Oc2ccccc2N1CC1CC1 | – | inconclusive: 100 µM [inhibitor, partial curve] | –
COc1ccc(CNC(=O)C2CCCN(Cc3cccc(-c4cccc(C)c4)c3)C2)cc1 (stereo not drawn) | – | inconclusive: 31.6 µM [inhibitor, full curve, poor fit] | –
Cc1ccc2c(C(=O)N3CCOCC3)cnn2c1 | – | inconclusive: 112 µM [inhibitor, partial curve, poor fit] | –
CC(C)CNC(=O)C1Cn2cccc2C(=O)N1CC(C)C (stereo not drawn) | – | – | inactive
O=C(CCC1CCCC1)N1CCC(N2C(=O)[C@H]3CN(Cc4ccccc4)C[C@H]3C2=O)CC1 | – | inconclusive: 56.2 µM [inhibitor, partial curve, poor fit] | –

Compound | activity change, negative = cytotoxicity | Potency | outcome
CCOC(=O)c1ccc(NC(=O)c2ccc3c(c2)N(CC)C2CCCCN2C3=O)cc1 (stereo not drawn) | – | active: 35.5 µM | –
O=C(CC1CCCC1)N1CCCC(c2noc(COc3ccccc3)n2)C1 (stereo not drawn) | – | inconclusive: 3.55 µM [inhibitor, full curve, poor fit] | –
CCN(C(=O)c1cc(-c2ccccc2C(F)(F)F)nc2c1cnn2C)c1ccccc1 | – | active: 25.1 µM | –
COC(=O)C1=C(C)N=C2SC=C(CC(=O)NCc3ccccc3F)N2C1c1ccccc1Cl (stereo not drawn) | – | inconclusive: 89.1 µM [inhibitor, single point] | –
CCC(COC)NC(=O)c1ccccc1OC1CCN(C(=O)COC)CC1 (stereo not drawn) | inactive: -5.83% | – | –
CCC1Oc2ccc(NC(=O)Cc3ccccc3)cc2CN(Cc2ccc(OC)cc2)C1=O (stereo not drawn) | – | inconclusive: 89.1 µM [inhibitor, single point] | –
Cc1ccc(Br)c(C(=O)NCc2ccnc3[nH]ccc23)c1 | – | inconclusive: 44.7 µM [inhibitor, partial curve, poor fit] | –
COCCn1cnc2ccc(-c3ccccc3)nc2c1=O | inactive: 3.31% [at 230 µM] | – | –
COc1ccc(C(=O)NC2CCN(c3cc(-c4cccs4)[nH]n3)CC2)cc1F | – | inconclusive: 89.1 µM [inhibitor, single point] | –
CN1c2cc(C(=O)NC3CCCCCCC3)ccc2C(=O)N2CCCC21 (stereo not drawn) | inactive: -28.7% | – | –
O=C(c1ccc(F)cc1Cl)N1CCN(c2cc(C(F)(F)F)ncn2)CC1 | – | inconclusive: 89.1 µM [inhibitor, single point] | –
CC(C)c1ccc(NC(=O)O[C@@H]2CO[C@H]3[C@@H]2OC[C@@H]3NS(=O)(=O)c2cccs2)cc1 | – | inconclusive: 50.1 µM [inhibitor, partial curve, poor fit] | –
O=c1cc(-c2ccccn2)oc2c(NC3CCOCC3)nccc12 | inactive: -16.7% [at 172 µM] | – | –
COc1ccccc1-c1cc(C(=O)NC2CCCCCC2)c2cnn(C)c2n1 | – | inconclusive: 50.1 µM [inhibitor, partial curve, poor fit] | –
O=C(Cc1ccc(C(F)(F)F)cc1)NC1CCN(Cc2cccc(-c3cccs3)c2)CC1 | – | inconclusive: 10 µM [inhibitor, full curve, poor fit] | –
Cc1cnc(CCNC(=O)Nc2ccccc2F)n1C1CCC1 | – | inconclusive: 44.7 µM [inhibitor, partial curve, poor fit] | –
COCCN1CCC(N2CCN(C(=O)C3CCCC3)CC2)C1=O (stereo not drawn) | inactive: 1.2% | – | –
COC1CCOC2(CCN(S(=O)(=O)c3ccc(F)cc3)CC2)C1 (stereo not drawn) | inactive: -7.33% | – | –
COCCCNC(=O)C1CCCN(c2ccnc3ccnn23)C1 (stereo not drawn) | inactive: -14% [at 172 µM] | – | –
O=C1CCN(CC(O)COc2ccccc2)c2ccc(F)cc2CN1Cc1ccccc1 (stereo not drawn) | – | inconclusive: 50.1 µM [inhibitor, partial curve, poor fit] | –
CN(Cc1ccc(N2CCCCC2)cc1)C(=O)CCC[C@H]1NC[C@@H]2C[C@H]1CN(Cc1ccccc1)C2 | – | inconclusive: 20 µM [inhibitor, full curve, poor fit] | –
